# Among all 2,000 compounds or so, about 110 (5.5%) showed an effect of 50% or more. The list shows a part of the results.
# Molecular target: Genome polyprotein (dengue virus type 2) (UniProt P29990)
# [1] = Thailand/16681/1984, Concentration 25.0 uM, Number of replicates 1.0
compound,measurement,setting,value
Cc1cc(CO)c2cccc(Cc3ccccc3C(=O)NC[C@H](C)O)c2n1,inhibition,"Thailand/16681/1984, Concentration 49.95 uM, Number of replicates 2.0, Standard deviation 0.37872955767016525 %",-3.03%
same,inhibition,"Thailand/16681/1984, Concentration 99.9 uM, Number of replicates 2.0, Standard deviation 0.20409716758521712 %",0.577%
CN(Cc1cc([N+](=O)[O-])ccc1Cl)C(=O)C1CCN(c2ccc(C=O)cc2)CC1,inhibition,[1],15.6%
Cc1cc(CO)c2cccc(Cc3ccccc3C(=O)N(c3ncccn3)S(=O)(=O)c3ccc(N)cc3)c2n1,inhibition,"Thailand/16681/1984, Concentration 49.95 uM, Number of replicates 2.0, Standard deviation 1.284948840815395 %",27.7%
same,inhibition,"Thailand/16681/1984, Concentration 99.9 uM, Number of replicates 2.0, Standard deviation 0.4850893215235289 %",47.5%
O=Cc1ccc(N2CCC(C(=O)Nc3ccc(I)cc3)CC2)cc1,inhibition,[1],13.9%
COc1cc(Cl)nc(NC(=O)C2CCN(c3ccc(C=O)cc3)CC2)n1,inhibition,[1],14.3%
O=Cc1ccc(N2CCC(C(=O)Nc3ccc(Cl)nc3Cl)CC2)cc1,inhibition,[1],10.5%
O=Cc1ccc(N2CCC(C(=O)NCCCCN3CCOCC3)CC2)cc1,inhibition,[1],12.1%
O=C1NCc2ccccc2C12CCN(CCn1cc(-c3ccccc3)cn1)CC2,inhibition,"Thailand/16681/1984, Concentration 49.5 uM, Number of replicates 2.0, Standard deviation 0.9617186641961479 %",-0.861%
same,inhibition,"Thailand/16681/1984, Concentration 99.01 uM, Number of replicates 2.0, Standard deviation 1.5619571903387601 %",0.332%
same,inhibition,"Thailand/16681/1984, Concentration 198.0 uM, Number of replicates 2.0, Standard deviation 1.242976058788851 %",2.76%
O=Cc1ccc(N2CCC(C(=O)NCc3cccc([N+](=O)[O-])c3)CC2)cc1,inhibition,[1],11%
O=S(=O)(Nc1ccccc1)c1ccc(Oc2ccccc2Cl)cc1,inhibition,"Thailand/16681/1984, Concentration 49.5 uM, Number of replicates 2.0, Standard deviation 1.8105423163556815 %",1.05%
same,inhibition,"Thailand/16681/1984, Concentration 99.01 uM, Number of replicates 2.0, Standard deviation 1.556829309720985 %",2.93%
same,inhibition,"Thailand/16681/1984, Concentration 198.0 uM, Number of replicates 2.0, Standard deviation 1.335088080503107 %",5.83%
O=Cc1ccc(N2CCC(C(=O)Nc3ccc(-c4ccccn4)cc3)CC2)cc1,inhibition,[1],14.2%
O=C(Nc1cc2c(cc1C1CC1)CNC2)c1cc(F)cc2[nH]ncc12,inhibition,"Thailand/16681/1984, Concentration 99.5 uM, Number of replicates 2.0, Standard deviation 0.34945873996674337 %",63.1%
same,inhibition,"Thailand/16681/1984, Concentration 295.6 uM, Number of replicates 2.0, Standard deviation 0.6526301250248825 %",85.2%
Cc1ccc(NC(=O)C2CCN(c3ccc(C=O)cc3)CC2)cc1I,inhibition,[1],9.87%
Cn1cc(NC(=O)c2ccccc2C(F)(F)F)c(-c2ccc3oc(=O)[nH]c3c2)n1,inhibition,"Thailand/16681/1984, Concentration 49.5 uM, Number of replicates 2.0, Standard deviation 0.10106409663166684 %",-3.34%
same,inhibition,"Thailand/16681/1984, Concentration 99.01 uM, Number of replicates 2.0, Standard deviation 1.4404067329045545 %",-2.03%
same,inhibition,"Thailand/16681/1984, Concentration 198.0 uM, Number of replicates 2.0, Standard deviation 0.4542972554699548 %",-1.2%
c1ccc2oc(C3CCN(Cc4c[nH]c5ccccc45)CC3)nc2c1,inhibition,"Thailand/16681/1984, Concentration 49.5 uM, Number of replicates 2.0, Standard deviation 1.4155991189444663 %",1.29%
same,inhibition,"Thailand/16681/1984, Concentration 99.01 uM, Number of replicates 2.0, Standard deviation 0.9962387138309198 %",1.83%
same,inhibition,"Thailand/16681/1984, Concentration 198.0 uM, Number of replicates 2.0, Standard deviation 0.9574776059546029 %",3.59%
Cc1cnccc1NC(=O)c1cccn(CC(C)C)c1=O,inhibition,"Thailand/16681/1984, Concentration 49.5 uM, Number of replicates 2.0, Standard deviation 0.778042961803475 %",5.85%
same,inhibition,"Thailand/16681/1984, Concentration 99.01 uM, Number of replicates 2.0, Standard deviation 0.8584470104698897 %",10.9%
same,inhibition,"Thailand/16681/1984, Concentration 198.0 uM, Number of replicates 2.0, Standard deviation 0.9860352989812204 %",17.9%
O=C(c1ccc2c(c1)B(O)OC2)N1CCN[C@H](c2ccc(Cl)cc2)C1,inhibition,"Thailand/16681/1984, Concentration 49.5 uM, Number of replicates 2.0, Standard deviation 1.1051975895382533 %",-1.33%
same,inhibition,"Thailand/16681/1984, Concentration 99.01 uM, Number of replicates 2.0, Standard deviation 0.5109273627094355 %",-1.22%
same,inhibition,"Thailand/16681/1984, Concentration 198.0 uM, Number of replicates 2.0, Standard deviation 0.04393612974415127 %",-0.309%
Cc1cc(CO)c2cccc(Cc3ccccc3C(=O)N[C@@H](CCN)C(=O)O)c2n1,inhibition,"Thailand/16681/1984, Concentration 49.95 uM, Number of replicates 2.0, Standard deviation 1.520667397992335 %",-7.13%
same,inhibition,"Thailand/16681/1984, Concentration 99.9 uM, Number of replicates 2.0, Standard deviation 0.9349661312279641 %",2.52%
COc1cc(CNC(=O)C2CCN(c3ccc(C=O)cc3)CC2)ccc1O,inhibition,[1],14.1%
Cc1cc(CO)c2cccc(Cc3cccc(C(=O)N4CC[C@@H](O)C4)c3)c2n1,inhibition,"Thailand/16681/1984, Concentration 49.95 uM, Number of replicates 2.0, Standard deviation 0.8940031033980441 %",-6.42%
same,inhibition,"Thailand/16681/1984, Concentration 99.9 uM, Number of replicates 2.0, Standard deviation 1.7851314545528572 %",-4.22%
CS(=O)(=O)c1ccc(N2CCNCC2)cc1NC(=O)c1cccc2ncccc12,inhibition,"Thailand/16681/1984, Concentration 49.5 uM, Number of replicates 2.0, Standard deviation 1.471415223025232 %",-1.91%
same,inhibition,"Thailand/16681/1984, Concentration 99.01 uM, Number of replicates 2.0, Standard deviation 0.5882879031511815 %",-1.35%
same,inhibition,"Thailand/16681/1984, Concentration 198.0 uM, Number of replicates 2.0, Standard deviation 4.6321298294521 %",0.843%
O=Cc1ccc(N2CCC(C(=O)Nc3cncc(Br)c3)CC2)cc1,inhibition,[1],14.1%
COc1cc(F)c(CNC(=O)C2CCN(c3ccc(C=O)cc3)CC2)c(F)c1,inhibition,[1],7.48%
CCc1n[nH]c([C@H]2CN(C(=O)c3cn([C@H]4CCCNC4)nn3)CCO2)n1,inhibition,"Thailand/16681/1984, Concentration 49.5 uM, Number of replicates 2.0, Standard deviation 1.2173915519701617 %",-0.434%
same,inhibition,"Thailand/16681/1984, Concentration 99.01 uM, Number of replicates 2.0, Standard deviation 1.8302492765621325 %",0.688%
same,inhibition,"Thailand/16681/1984, Concentration 198.0 uM, Number of replicates 2.0, Standard deviation 1.732441824768054 %",2%

# Source: ChEMBL document CHEMBL5606460, “ASAP - DENV-2 NS2B-NS3 protease fluorescence single point” (2024)
